Assay results from paper PMC7819943, “Rice protein-binding microarrays: a tool to detect cis-acting elements near promoter regions in rice”.
The other results are listed elsewhere or left out.

Each sequence was assayed against T1, OsWOX13 (Oryza sativa, UniProt Q5QMM3 1-267) (assay: protein-binding microarray (RPBM); PBS, 2% BSA, 51.3 ng/ul salmon testes DNA, 50 uM zinc acetate, 200 nM TF, 25 C, 1 h; high values mean tight binding). Settings: protein: recombinant; tags: N-terminal polyhistidine and DsRed monomer fusion (pET32a); label: CyDye5-dUTP incorporated in the synthesized complementary strand; 3' TTTTT single-stranded linker to array surface; dsDNA, one strand shown.
T1 sequence: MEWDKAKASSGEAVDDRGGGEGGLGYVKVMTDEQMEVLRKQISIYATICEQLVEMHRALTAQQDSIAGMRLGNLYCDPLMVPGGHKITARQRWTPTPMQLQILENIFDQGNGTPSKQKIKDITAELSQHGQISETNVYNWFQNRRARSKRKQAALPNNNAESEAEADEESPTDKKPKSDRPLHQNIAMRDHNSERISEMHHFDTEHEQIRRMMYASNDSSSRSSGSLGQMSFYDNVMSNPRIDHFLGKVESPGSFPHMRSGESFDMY
Summary of the method: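 Ni–NTA purification followed expression in E. coli BL21-CodonPlus of transcription factors fused N-terminally to a polyhistidine tag and DsRed. At 200 nM in PBS with 2% BSA, salmon testes DNA and 50 µM zinc acetate, the protein was incubated for 1 h at 25 °C with a custom Agilent array that had been primer-extended with Cy5-dUTP and blocked with 2% BSA. After washing, the array was read on an Axon 4000B scanner. The binding signal is per-feature fluorescence intensity in arbitrary units.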

Sequence | binding signal
ACATGTAATTGAATAAATATTATTGGTCAAAGTTTGAGAACGGAGTCACCTAGTGCAG | 26300 fluorescence intensity (a.u.)
AAATAATTAAATAACATAAGAAAGGAACAGCTTACCTAATCGGAGTCACCTAGTGCAG | 20400 fluorescence intensity (a.u.)
ATAATTCTAAAATATTTAATTTAAATCCTACAATACGATACGGAGTCACCTAGTGCAG | 3820 fluorescence intensity (a.u.)
TCCCAAATTGAAATTATATGAATTTTATAGAACTAGATGACGGAGTCACCTAGTGCAG | 25800 fluorescence intensity (a.u.)
AGCATAATTTTCGTACTGTACCATTTTGCTTGGGAACGAACGGAGTCACCTAGTGCAG | 3660 fluorescence intensity (a.u.)
TGAAACTAAATTTAGAAGTTGTAACTCTAATAAATAGGTACGGAGTCACCTAGTGCAG | 9440 fluorescence intensity (a.u.)
AGAAAATAAATTTGGAAACAGCTCGTTCGCCGGGTCATGTCGGAGTCACCTAGTGCAG | 4310 fluorescence intensity (a.u.)
CCTTAACTTGTCATCAAATTACAAAATCGTCCTCCAACCACGGAGTCACCTAGTGCAG | 8890 fluorescence intensity (a.u.)
TTGCACTGATTTTGTAACTTAAGGGATACGTCGTATCCGGCGGAGTCACCTAGTGCAG | 6500 fluorescence intensity (a.u.)
CTAAATTTAGAATTCGATGATAATCCATGCAACTACTTCTCGGAGTCACCTAGTGCAG | 15600 fluorescence intensity (a.u.)
AGCTCAATCACAAATTAGTAGTGAGGCCCACATGTAAGTGCGGAGTCACCTAGTGCAG | 26600 fluorescence intensity (a.u.)
ATTTAGATAAATTGATTATTTCACAAAATTAACTCAATAACGGAGTCACCTAGTGCAG | 21800 fluorescence intensity (a.u.)
ATGTTTGTAATTATGCATATTTTGTAGTTTGCTAATATTCCGGAGTCACCTAGTGCAG | 7960 fluorescence intensity (a.u.)
TAAACTCCCTATCAATTTCCATCACCTCTACCAAACAAGACGGAGTCACCTAGTGCAG | 5540 fluorescence intensity (a.u.)
ATTAAAACTTAATTAAATATACTAATAGCTTTCTCATTTTCGGAGTCACCTAGTGCAG | 7350 fluorescence intensity (a.u.)
ATGACTGGAGATGGAGTTAATGACGCCCCTGCGCTAAAGCCGGAGTCACCTAGTGCAG | 4770 fluorescence intensity (a.u.)
CGGTGATAGAGAATTACCCGGTGTTTTAGAGGGATACCACCGGAGTCACCTAGTGCAG | 18900 fluorescence intensity (a.u.)
TTCTCTGCTCGAAATTGATTCTTGGATAATGATGGACCGACGGAGTCACCTAGTGCAG | 4850 fluorescence intensity (a.u.)
ATAAATTGTTATGTTTTAACAACTCTAAAATAAGTTCCATCGGAGTCACCTAGTGCAG | 12400 fluorescence intensity (a.u.)
AGATAATTTCATAACATAAAACAGAGTAATATTCTAGAGTCGGAGTCACCTAGTGCAG | 10900 fluorescence intensity (a.u.)
CTAAATTTAGCTCCAGACGTTAGGTCTAGAATTTAGTTGTCGGAGTCACCTAGTGCAG | 4460 fluorescence intensity (a.u.)

Sequence | binding signal
AAAATAATTTATGAATAAAACTTTTATATATGTGTTCTTACGGAGTCACCTAGTGCAG | 21400 fluorescence intensity (a.u.)
CATTATTTGCCTAAATGATGATCAAACATGGATGAAGGAGCGGAGTCACCTAGTGCAG | 4310 fluorescence intensity (a.u.)
TCGCGTGGTTGATTGGCGGCTTCAGGCCTTGTTCGGTTGGCGGAGTCACCTAGTGCAG | 27300 fluorescence intensity (a.u.)
ATGTATTAATTTGCCACTTCCTTTTACTTGGTAAGTGGAGCGGAGTCACCTAGTGCAG | 14100 fluorescence intensity (a.u.)
ACACTGTTAAATTAAGTCATTCAAAATATATCTCTTCAAACGGAGTCACCTAGTGCAG | 3380 fluorescence intensity (a.u.)
TTTTATAATATGTAATCACAGACAGTTCTAAGACCCATCTCGGAGTCACCTAGTGCAG | 4590 fluorescence intensity (a.u.)
GGAAAACAATTAGTATCTGATTAAACTACATCTGAATCTGCGGAGTCACCTAGTGCAG | 14500 fluorescence intensity (a.u.)
TTCCGCTGCTTAGATCTTTATGATTGAGAGGAACTATCTACGGAGTCACCTAGTGCAG | 3420 fluorescence intensity (a.u.)
TTCAATTAATATCCAGTAACCAGTTTGATCTGCTACTCCCCGGAGTCACCTAGTGCAG | 12200 fluorescence intensity (a.u.)
GATCCAATCATGAGGGAGTGAGATCGAGCGATTGATTAGGCGGAGTCACCTAGTGCAG | 18900 fluorescence intensity (a.u.)
CCGCCTTGACTGGATTTGCTGTCATTTCCAGAACTAGTCACGGAGTCACCTAGTGCAG | 17400 fluorescence intensity (a.u.)
TTTGTAATAATTAAAACTCAATCAATAATACGTTAATACTCGGAGTCACCTAGTGCAG | 13000 fluorescence intensity (a.u.)
TTGAGAGTTATTCATGATTTATATTCCCAAGGTTTGACTTCGGAGTCACCTAGTGCAG | 3500 fluorescence intensity (a.u.)
CTAAATTTGTACTTGTAAGAAAATTTCTCAGTACAAAATCCGGAGTCACCTAGTGCAG | 5240 fluorescence intensity (a.u.)
TCATCCTCAATCGTCATTGATAGGTGGGCCACTAGTCCAACGGAGTCACCTAGTGCAG | 3640 fluorescence intensity (a.u.)
TCGTTTTAATTTCAATTAAACTTATAATTTTGGCGTGACACGGAGTCACCTAGTGCAG | 35500 fluorescence intensity (a.u.)
TTATTTTATCCAATCAGTTGTGCTTAGACATTTCCTCCAACGGAGTCACCTAGTGCAG | 6280 fluorescence intensity (a.u.)
AGCAAACCAATCATGCATCATTACGCGTTAGTCAATCTCTCGGAGTCACCTAGTGCAG | 19400 fluorescence intensity (a.u.)
AAGGTTAATTGGATCCATGCCACGCGAATTGTGGCAAATCCGGAGTCACCTAGTGCAG | 22100 fluorescence intensity (a.u.)
TCAGATTAGATTAGGTAGAATGGACTTTCTGCACGTCTTTCGGAGTCACCTAGTGCAG | 29700 fluorescence intensity (a.u.)
GTACCTTCAAATAATTATCAGAAATTATCCAGCCATATTGCGGAGTCACCTAGTGCAG | 6900 fluorescence intensity (a.u.)

Sequence | binding signal
ATGATTGTTAACCAAAATTCAGTTATATTCTTATATACAACGGAGTCACCTAGTGCAG | 28300 fluorescence intensity (a.u.)
TTTAATTCCAATTTTGATCACACGTACCAGATTGAATCACCGGAGTCACCTAGTGCAG | 23200 fluorescence intensity (a.u.)
ATGTAGAGTTAATTTGTAAGTATGTAGGATCACCTAACTGCGGAGTCACCTAGTGCAG | 5180 fluorescence intensity (a.u.)
TAGAAGTTAAATTTGACCTAATATGTTTAATATGTTTATGCGGAGTCACCTAGTGCAG | 3580 fluorescence intensity (a.u.)
ACCTTGATTAGTAGCCCTAAACCACAGGTTTAACCGCTTACGGAGTCACCTAGTGCAG | 30500 fluorescence intensity (a.u.)
GCTTGATTAGTGGCAGCTTAATGACGAATGAGCCGTAGCACGGAGTCACCTAGTGCAG | 36700 fluorescence intensity (a.u.)
TTTAATGATATAGTATAACAAATGGACAGCTTGCGTACATCGGAGTCACCTAGTGCAG | 6420 fluorescence intensity (a.u.)
ATAATATGTCAGTTAATTTATAATATCGGTGTACCCGAGACGGAGTCACCTAGTGCAG | 19100 fluorescence intensity (a.u.)
TAATGCTTAATTAATCTCAATATAATCGCGTGCTTTGTTTCGGAGTCACCTAGTGCAG | 7810 fluorescence intensity (a.u.)
ATAACTAATTACGCAGATTGCAACCAATCTGCAAGACGAACGGAGTCACCTAGTGCAG | 39300 fluorescence intensity (a.u.)
AATTCATTGGCAATCACATTGTGCTTGTTGGCTAACTTCACGGAGTCACCTAGTGCAG | 13600 fluorescence intensity (a.u.)
AATCAAATTGATTGGCTTTATATTAATAGAGGGGAAGAAACGGAGTCACCTAGTGCAG | 33500 fluorescence intensity (a.u.)
AGCAAGTCAGAAACAGCCAATCACATGATGCCACGTGCATCGGAGTCACCTAGTGCAG | 9610 fluorescence intensity (a.u.)
AGAATACCATTTTATAATTGCTAGGAATCGCCAACGCTCGCGGAGTCACCTAGTGCAG | 3190 fluorescence intensity (a.u.)
TACCGGTTATTGATAGTGTAGTATGTAACTATTGTATGAACGGAGTCACCTAGTGCAG | 3370 fluorescence intensity (a.u.)
AGTTAATCAAACCGAGCCAATCCAAGCCTGTTCTTTGCCACGGAGTCACCTAGTGCAG | 3960 fluorescence intensity (a.u.)
TAATTAATTAAACCAAACATTAAATATATTTTGATAATATCGGAGTCACCTAGTGCAG | 20900 fluorescence intensity (a.u.)
GGAATTTGTCATGATAATTGGGAAAATATATACTGCAAACCGGAGTCACCTAGTGCAG | 21200 fluorescence intensity (a.u.)
TTAATGAATTTAGACATAATATATATCTAGATTCATTAGCCGGAGTCACCTAGTGCAG | 20500 fluorescence intensity (a.u.)
GCTATTAGATTGACTATATATGAATTGGAGCTAGTAGTTGCGGAGTCACCTAGTGCAG | 42900 fluorescence intensity (a.u.)
ACGAATCTTTTGAGTCTAATTAGTCCATGATTAGCCATAACGGAGTCACCTAGTGCAG | 13600 fluorescence intensity (a.u.)

Sequence | binding signal
TTAACTAATTATATGTCAATGAGTCGTTTCATTCTACGTGCGGAGTCACCTAGTGCAG | 48400 fluorescence intensity (a.u.)
AGTACTGTAGATAATAAAGTAAGTCACGAATAAAATAAATCGGAGTCACCTAGTGCAG | 50900 fluorescence intensity (a.u.)
TTCTTTAAATCACACAAGTAATCTGTTTCACTGATGAGTGCGGAGTCACCTAGTGCAG | 3290 fluorescence intensity (a.u.)
GGCTAAATAGACTTATTCCATTCCAACAAGAGTGGAAATTCGGAGTCACCTAGTGCAG | 4000 fluorescence intensity (a.u.)
TGATAACTAATATATTTGTCATAACTCACTTTACACATACCGGAGTCACCTAGTGCAG | 3920 fluorescence intensity (a.u.)
TTTCAATATTTTAATTTATTGTTCAACTTCTAATAGATGTCGGAGTCACCTAGTGCAG | 4000 fluorescence intensity (a.u.)
ATAAAATTGCCACATAAGCACCACGTCAATGCTATGTGGGCGGAGTCACCTAGTGCAG | 3430 fluorescence intensity (a.u.)
CATTACTATAATTGTATTACTTTTGGTAATCATTACCTAGCGGAGTCACCTAGTGCAG | 7680 fluorescence intensity (a.u.)
AGTAAATTACTTTTAAATTAATAAAATATCTGAATATACGCGGAGTCACCTAGTGCAG | 35000 fluorescence intensity (a.u.)
TCAAGATTTGTAAATTAGTGTTTCCAATTTAATTACATAGCGGAGTCACCTAGTGCAG | 30600 fluorescence intensity (a.u.)
CCGTAATTTGTTTCAATTTAACTGTTATGAAAATAGAGCTCGGAGTCACCTAGTGCAG | 35700 fluorescence intensity (a.u.)
TTATAATTATTTAATTCACAAATCCATACAAGCAGTGACACGGAGTCACCTAGTGCAG | 19100 fluorescence intensity (a.u.)
GATGGTATAATGGCAATTTTCTCGGCCTGACTGACGCCGGCGGAGTCACCTAGTGCAG | 10300 fluorescence intensity (a.u.)
TCCTAATAGGACATCCAAGCAAAACTAACACTCTAGAGCACGGAGTCACCTAGTGCAG | 3390 fluorescence intensity (a.u.)
TTCTTAATTAGTAAGTATTAATCTCAATGAGTTGGTCGTTCGGAGTCACCTAGTGCAG | 25900 fluorescence intensity (a.u.)
TGCTTGCTTGCTTGGTTTGATTGGTGGAGGTGGGAGGAGTCGGAGTCACCTAGTGCAG | 3920 fluorescence intensity (a.u.)
GGGCCTAATATCAAATAATTAGAAGGGGTAAAGCTTCGAACGGAGTCACCTAGTGCAG | 3770 fluorescence intensity (a.u.)
ACATTAACAAACTCTATCTTAACATTTAGATGCAAGAGCCCGGAGTCACCTAGTGCAG | 3790 fluorescence intensity (a.u.)
ACTTCTAATAGATGACGCCGTTAACTTTTAAACAAATATTCGGAGTCACCTAGTGCAG | 5610 fluorescence intensity (a.u.)
CCCTTTTCCTCAATCAGCAACCAGATCAACTCTGCACAGACGGAGTCACCTAGTGCAG | 10900 fluorescence intensity (a.u.)
TATTATGGTGATTAGATCCATCCTGGTTTGTTACTTAAGGCGGAGTCACCTAGTGCAG | 12300 fluorescence intensity (a.u.)
